This note sets out measurements from patent publication US20240050583A1, “PROTEIN-DRUG CONJUGATE AND SITE-SPECIFIC CONJUGATING METHOD” (HARBOUR BIOMED (SHANGHAI) CO., LTD, priority 2020, published 2024).

For series [1], the target named is T1, PanC-1 cells highly expressing human ROR1 (Homo sapiens, UniProt Q01973).
T1 construct: tumor cells PanC-1 (ATCC, CRL-1469) highly expressing human ROR1; host or cells: PanC-1
Put plainly: FACS binding to cells highly expressing ROR1. Conditions: flow cytometry FACS. As to the method: The binding ability of the antigen-binding protein to tumor cells PanC-1 (ATCC, CRL-1469) highly expressing human ROR1 was determined by flow cytometry FACS. Specifically, the cells were digested and resuspended in a DMEM complete medium, and the cell density was adjusted to 1×10^6 cells/mL. The cells were seeded in a 96-well V-bottom plate (Corning, #3894) at 100 μL/well, followed by the addition of test binding proteins diluted in a 3-fold gradient at a concentration that was 2 times the final concentration, each at 100 μL/well. The cells were incubated at 4° C. for 1 h away from light. Thereafter, the cells in each well were rinsed twice with 100 μL of pre-cooled PBS, and centrifuged at 500 g at 4° C. for 5 min, and then the supernatant was discarded. Thereafter, a fluorescent secondary antibody (Alexa Fluor 488-conjugated AffiniPure Goat Anti-Human IgG, Fcγ Fragment Specific, Jackson ImmunoResearch Inc., #109-545-098, diluted in a 1:500 ratio) was added at 100 μL/well, and the plate was incubated at 4° C. for 30 min away from light. The cells in each well were then rinsed twice with 100 μL of pre-cooled PBS and centrifuged at 500 g at 4° C. for 5 min, and then the supernatant was discarded. […] Fluorescence signal values were read using a BD FACS CANTOII flow cytometer, and the data were processed and analyzed using FlowJo v10 (FlowJo, LLC) software.

The nature of series [2]: Molecular weight and coupling product components (DAR) by LC-MS. The note with it: non-reduced sample. The source says:
In this example, liquid chromatography-mass spectrometry (LC-MS) was used to analyze the protein sample for molecular weight. Those skilled in the art can use different models of liquid chromatography (LC) and mass spectrometer (MS) to establish similar analytical methods according to the technical instructions and through experimental exploration. Only representative methods are listed in this example.
In certain specific embodiments, determination of the molecular weight of a protein sample required desaccharification on the sample to remove modifications such as saccharide chains, for example, the sample was processed with glycosidase PNGase F (NEB, #P0705L) at 37° C. for at least 4 h. For example, in all examples of the present invention, when the molecular weight of protein samples was determined, unless otherwise emphasized, the protein samples to be tested were subjected to desaccharification by the glycosidase PNGase F.
In certain specific embodiments, determination of the reduced molecular weight of a protein sample required reduction on the sample, for example, the sample was processed with […] dithiothreitol (DTT) at 37° C. for 10 min. For example, in all examples of the present invention, the samples after reduction were called reduced samples, and the samples without reduction were called non-reduced samples.
Buffer A was 0.1% formic acid FA dissolved in water, and buffer B was 0.1% formic acid FA dissolved in acetonitrile. Injection: about 1 μg; flow rate: 0.3 mL/min; and operation temperature: 80° C. When reduced samples were tested, buffer A and buffer B were mixed within 12 min to form a linear gradient: using 10-60% B for the first 8 min and 80% B for the last 4 min. When non-reduced samples were tested, buffer A and buffer B were mixed within 9 min to form a linear gradient: using 15-60% B for the first 6 min and 80% B for the last 3 min.
Buffer A was 0.1% formic acid FA dissolved in water, and buffer B was 0.1% formic acid FA dissolved in acetonitrile. Injection: about 10 μL; flow rate: 0.2-0.5 mL/min; and operation temperature: 80° C. The detection wavelength was 214 nm.
In certain specific embodiments, the model of a mass spectrometer used was AB Sceix X500B, and the operating mode thereof was TOF-MS; when reduced samples were tested, a scanning range was 600-4000 m/z; when non-reduced samples were tested, a scanning range was 900-6000 m/z. Original mass spectrums were deconvolved by Sceix OS software to obtain molecular weight maps.
In certain other specific embodiments, the model of a mass spectrometer used was Waters Xevo G2-XS Q-TOF, and a molecular weight scanning range thereof was 500-4000 Da. Original mass spectrums were deconvolved by Water MaxEnt or Agilent MassHunter BioConfirm software.
In multiple specific embodiments of the present application, the combination set of different LC and MS conditions was used to achieve LC-MS combination for determining the molecular weight of protein samples. For example, in 0 and 0, the combination of conditions used was (chromatography column: ACQUITY UPLC Protein BEH C4; LC instrument: Waters Acquity UPLC; MS instrument: Waters Xevo G2-XS Q-TOF).

[3] abbreviates: lot CY20210202, before purification.

T1 sequence (Q01973 30-937): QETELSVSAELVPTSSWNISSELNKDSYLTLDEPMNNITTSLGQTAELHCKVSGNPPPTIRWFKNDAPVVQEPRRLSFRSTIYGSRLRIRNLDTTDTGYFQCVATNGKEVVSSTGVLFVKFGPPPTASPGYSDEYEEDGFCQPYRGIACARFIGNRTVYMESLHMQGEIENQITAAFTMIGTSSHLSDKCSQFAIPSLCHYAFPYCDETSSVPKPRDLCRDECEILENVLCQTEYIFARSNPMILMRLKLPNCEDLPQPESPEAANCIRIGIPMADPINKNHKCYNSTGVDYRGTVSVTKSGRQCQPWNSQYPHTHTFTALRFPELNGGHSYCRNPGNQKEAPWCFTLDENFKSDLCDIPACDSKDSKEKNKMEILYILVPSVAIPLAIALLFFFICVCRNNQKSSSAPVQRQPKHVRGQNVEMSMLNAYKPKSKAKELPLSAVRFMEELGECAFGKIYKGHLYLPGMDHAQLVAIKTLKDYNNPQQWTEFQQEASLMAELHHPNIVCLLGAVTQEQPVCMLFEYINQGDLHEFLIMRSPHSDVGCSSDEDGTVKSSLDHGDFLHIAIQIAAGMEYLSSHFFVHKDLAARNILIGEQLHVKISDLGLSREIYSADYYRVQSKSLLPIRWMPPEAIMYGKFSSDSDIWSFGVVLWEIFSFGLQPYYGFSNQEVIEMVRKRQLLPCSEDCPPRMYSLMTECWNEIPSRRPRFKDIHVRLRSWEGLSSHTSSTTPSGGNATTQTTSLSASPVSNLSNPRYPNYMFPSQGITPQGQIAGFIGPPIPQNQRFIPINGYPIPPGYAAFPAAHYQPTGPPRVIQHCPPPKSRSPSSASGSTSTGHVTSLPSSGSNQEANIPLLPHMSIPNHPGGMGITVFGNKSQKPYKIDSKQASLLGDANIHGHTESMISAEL

B1: PR002129-ADC (conjugate)
chain: QVQLVQSGGGVVQPGRSLRLSCAASGFTFSSYGMHWVRQAPGKGLEWVAVIWYDGSNKDYADSVKGRFTISRDTSKNTLYLQMNSLRAEDTAVYYCAREQARSFDLWGRGTLVTVSSGGGGSGGGGSGGGGSDIQLTQSPYSLSASVGDRVTITCRASQTINNWLAWYQQKPGKAPKLLIYKASSLESGVPSRFSGSGSGTEFTLTISSLQPDDFATYYCQQYKLYSPMYTFGQGTKVEIKGGGAS[not shown - human IgG1 Fc]
B1: the “binding activity to PanC-1 cells” value in series [1] is “strong specific binding activity”. Also, in series [2] (setting [3]), the “Content of DAR = 2 component” value is on record as 74.1% and the “Content of DAR = 4 component” value was found to be 9.0%. Further, the “Content of DAR = 2 component” value in series [2] (lot HSP31405-20200820, after purification) is “Main”.
